Test results from patent US20120058977A1, “PHARMACEUTICAL COMPOSITIONS AND METHODS FOR TREATING TUBERCULOSIS” (Rijksuniversiteit Groningen, priority 2009, published 2012).

System: M. smegmatis ΔipdAB
Assay: Cell growth inhibition of M. smegmatis ΔipdAB (mineral glucose liquid medium or agar plates)
Settings: 100 and 200 mg/l HIL

Substance: 3aα-H-4α(3′-propionic acid)-5α-hydroxy-7aβ-methylhexahydro-1-indanone-δ-lactone [HIL, reference compound]
- delay of the onset of growth of ΔipdAB (liquid mineral glucose medium): approximately 48 hours
- growth inhibition of ΔipdAB in mineral glucose medium (liquid): Growth inhibition was observed
